Measurements taken from the supplement of paper PMC10126150.
Values marked as one replicate rest on one cluster of the flow cell; about a third of the high ones do not repeat.
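Also: ATP exposure 15 min at 22 °C before imaging.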

Each sequence was assayed on ATP (assay: switch fluorescence ratio, 500 uM ATP over buffer (Cy3 cluster intensity, sum of 5 cycles each) (fold (ratio)); higher = stronger signal-on switching upon ATP binding; sequences stand for … in TCGTCGGCAGCGTCAGATGTGTATAAGAGACAGTTTTTTTTTTTTTTTTTTTTTTTTT…TC). Conditions: aptamer strand: ATP DNA aptamer (quencher-CACCTGGGGGAGTATTGCGGAGGAAGG + anchor), 100 nM annealed; ATP concentration: 500 uM; one replicate.
Method in brief: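 Imaging in selection buffer was followed by imaging after 15 min with 500 uM ATP at 22 °C, for Cy3-labelled switching-strand clusters annealed to 100 nM quencher-labelled ATP aptamer on a modified Illumina MiSeq flow-cell. Five of these buffer/ATP cycles ran, separated by NaOH stripping and re-annealing. The fluorescence ratio per cluster is summed target-cycle over summed buffer-cycle Cy3 intensity, averaged per switch-domain sequence; clusters outside 100-1000 RFU were removed.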
Sequence TTTGGCAGTA has a switch fluorescence ratio of 0.966. GTACGGCCAT was tested, and the switch fluorescence ratio was 1.06. Sequence GTCGCCTGGA has a switch fluorescence ratio of 1.01. With CAAAAGGTAA the switch fluorescence ratio was 0.966. Sequence GGAAACGCCG has a switch fluorescence ratio of 1.01. ATGGTTACAG gave a switch fluorescence ratio of 1. In the case of GGGTCACGAC, the switch fluorescence ratio is reported as 0.987. CTATTGTAGA gave a switch fluorescence ratio of 1. GAACCAGGTT gave a switch fluorescence ratio of 1.05. Work on AGGAAGCTTA yielded a switch fluorescence ratio of 0.995. Sequence CAAAAGGTGA has a switch fluorescence ratio of 1.04. Work on CCTGGTTTTA yielded a switch fluorescence ratio of 0.981. TTAAGCTTGG showed a switch fluorescence ratio of 0.992. Sequence ATGTTTCTTA has a switch fluorescence ratio of 0.96. AACGGTGTGT showed a switch fluorescence ratio of 0.998. GTCAGAGGAG showed a switch fluorescence ratio of 0.998. With ATGTACGTGT the switch fluorescence ratio was 1.04. AATGCCGTTG gave a switch fluorescence ratio of 0.986. Sequence GGATTCCAAA has a switch fluorescence ratio of 1.07. Sequence ATAGGGTTCT has a switch fluorescence ratio of 1.01. GTCGATTATC showed a switch fluorescence ratio of 0.98. With CGCGTCCACG the switch fluorescence ratio was 0.96. For CTCAACCCGT, the switch fluorescence ratio was 1.02. GGATATTACT showed a switch fluorescence ratio of 1.04. Sequence TCGTGACT has a switch fluorescence ratio of 1.04. Work on CGTGGGTCAC yielded a switch fluorescence ratio of 1.01. Sequence GTGGTCGCGA has a switch fluorescence ratio of 0.983. ATGTTGAATC gave a switch fluorescence ratio of 1.02. Work on GGCACTAGAG yielded a switch fluorescence ratio of 1. Work on CGGTTAGAGT yielded a switch fluorescence ratio of 1.02. AGACGCGTTG showed a switch fluorescence ratio of 0.956. For ACGCCGCCGG, the switch fluorescence ratio was 1.04. ACGTCGTGCC was tested, and the switch fluorescence ratio was 0.993. Work on GTTGTTATTC yielded a switch fluorescence ratio of 0.95. CTTACCACCT gave a switch fluorescence ratio of 1.32. AAATGAGTCA showed a switch fluorescence ratio of 1.03. With CATGATGAGG the switch fluorescence ratio was 0.963. Work on TTTCCTGAAT yielded a switch fluorescence ratio of 1.01. Sequence AATGTGAGGC has a switch fluorescence ratio of 0.944. In the case of TTATGGAAAT, the switch fluorescence ratio is reported as 1. TTAGCACGTG was tested, and the switch fluorescence ratio was 0.989. With ACGAACCGAT the switch fluorescence ratio was 1.24. CCGGCTGGAG was tested, and the switch fluorescence ratio was 1.03. Sequence ACGGAGCCG has a switch fluorescence ratio of 0.884. In the case of ATGTGATGAT, the switch fluorescence ratio is reported as 0.965. TTCTGGGCAG was tested, and the switch fluorescence ratio was 1.06. CCGACATCTA gave a switch fluorescence ratio of 2.38. Sequence CGTCTTGCTC has a switch fluorescence ratio of 1.02. TCATGAGTCT showed a switch fluorescence ratio of 0.979. AAGGAGTGGT gave a switch fluorescence ratio of 0.983. Sequence CATTGTATAG has a switch fluorescence ratio of 0.992. Sequence ATATTATCGA has a switch fluorescence ratio of 1.02. Work on TGAATTGCCT yielded a switch fluorescence ratio of 1.27. Work on GCTCATCGTA yielded a switch fluorescence ratio of 1. Sequence TAACGAACTG has a switch fluorescence ratio of 1.03. TTTACCAGTC showed a switch fluorescence ratio of 1.02. In the case of CCCTTGATCA, the switch fluorescence ratio is reported as 1.01. Work on TAGGCAAAGG yielded a switch fluorescence ratio of 1. TAGACTCTTC was tested, and the switch fluorescence ratio was 1.02. Work on CAATCATCTG yielded a switch fluorescence ratio of 0.993. CATTTCCCGT was tested, and the switch fluorescence ratio was 1.02. AGGCTATTAA showed a switch fluorescence ratio of 0.991. AGCCTCGGGC showed a switch fluorescence ratio of 1.02. TTCGGGCTTA showed a switch fluorescence ratio of 0.98. GGTCGCGCAA gave a switch fluorescence ratio of 1.08. TGTAGCCTCT showed a switch fluorescence ratio of 1.01. GAGGCCCTCG was tested, and the switch fluorescence ratio was 0.985. With AGATTGCTG the switch fluorescence ratio was 1. CCCCGGACGG showed a switch fluorescence ratio of 1.03. GGCCAAAGCC gave a switch fluorescence ratio of 0.961. With ATTCGCCGCC the switch fluorescence ratio was 0.947. With GTTGATGGTT the switch fluorescence ratio was 0.999. Sequence GATGTAAGG has a switch fluorescence ratio of 0.984. With TATCTTAACT the switch fluorescence ratio was 1.07. Work on CTTCTAGCTG yielded a switch fluorescence ratio of 1.01. TTAAAATCTT gave a switch fluorescence ratio of 0.983. Work on TGGCACGGCG yielded a switch fluorescence ratio of 1.01. CACTACATGT showed a switch fluorescence ratio of 1.03. With GGTTAGAGGA the switch fluorescence ratio was 1.01. In the case of TATATTTTGA, the switch fluorescence ratio is reported as 0.996. GTGTTTCTGG was tested, and the switch fluorescence ratio was 0.99. CTTGTTTAGC gave a switch fluorescence ratio of 1.01. Work on CGAGATAACA yielded a switch fluorescence ratio of 0.963. Work on AAATAGTATC yielded a switch fluorescence ratio of 0.977. In the case of GGATGGTCGG, the switch fluorescence ratio is reported as 1.02. In the case of AGTCATTGGT, the switch fluorescence ratio is reported as 1.02. Sequence CCAATCCGGA has a switch fluorescence ratio of 1.06. Work on TGTGATATAA yielded a switch fluorescence ratio of 0.978. For AACTAGGTT, the switch fluorescence ratio was 0.991. CTGCAAGGAG gave a switch fluorescence ratio of 1.13. CGCGCTGTCA showed a switch fluorescence ratio of 1.02. In the case of TTCCATAATG, the switch fluorescence ratio is reported as 0.978. Work on TGGCAAGGTT yielded a switch fluorescence ratio of 1.27. Work on CCATTCCCCA yielded a switch fluorescence ratio of 1.08. GATGAAAATC showed a switch fluorescence ratio of 0.98. Work on CCAGTCTGAG yielded a switch fluorescence ratio of 1.05. For TGGGATCGAA, the switch fluorescence ratio was 0.98. Work on GTGCTGCCCT yielded a switch fluorescence ratio of 1. With GCCGACCGGG the switch fluorescence ratio was 0.985. With ACGTCAACAT the switch fluorescence ratio was 1.35.
